Results reported in paper PMC4336329 (PLoS ONE, 2015).
Among all 310,000 compounds or so, about 2,200 (0.71%) showed an effect of 50% or more. Effects have a minus sign here. This is one part of the list.

Target: human ether-à-go-go-related gene (hERG) potassium channel (human, UniProt Q12809)
Experiment: primary screen, population patch clamp on CHO cells stably expressing hERG

human ether-à-go-go-related gene (hERG) potassium channel, sequence (Q12809 whole entry, looked up): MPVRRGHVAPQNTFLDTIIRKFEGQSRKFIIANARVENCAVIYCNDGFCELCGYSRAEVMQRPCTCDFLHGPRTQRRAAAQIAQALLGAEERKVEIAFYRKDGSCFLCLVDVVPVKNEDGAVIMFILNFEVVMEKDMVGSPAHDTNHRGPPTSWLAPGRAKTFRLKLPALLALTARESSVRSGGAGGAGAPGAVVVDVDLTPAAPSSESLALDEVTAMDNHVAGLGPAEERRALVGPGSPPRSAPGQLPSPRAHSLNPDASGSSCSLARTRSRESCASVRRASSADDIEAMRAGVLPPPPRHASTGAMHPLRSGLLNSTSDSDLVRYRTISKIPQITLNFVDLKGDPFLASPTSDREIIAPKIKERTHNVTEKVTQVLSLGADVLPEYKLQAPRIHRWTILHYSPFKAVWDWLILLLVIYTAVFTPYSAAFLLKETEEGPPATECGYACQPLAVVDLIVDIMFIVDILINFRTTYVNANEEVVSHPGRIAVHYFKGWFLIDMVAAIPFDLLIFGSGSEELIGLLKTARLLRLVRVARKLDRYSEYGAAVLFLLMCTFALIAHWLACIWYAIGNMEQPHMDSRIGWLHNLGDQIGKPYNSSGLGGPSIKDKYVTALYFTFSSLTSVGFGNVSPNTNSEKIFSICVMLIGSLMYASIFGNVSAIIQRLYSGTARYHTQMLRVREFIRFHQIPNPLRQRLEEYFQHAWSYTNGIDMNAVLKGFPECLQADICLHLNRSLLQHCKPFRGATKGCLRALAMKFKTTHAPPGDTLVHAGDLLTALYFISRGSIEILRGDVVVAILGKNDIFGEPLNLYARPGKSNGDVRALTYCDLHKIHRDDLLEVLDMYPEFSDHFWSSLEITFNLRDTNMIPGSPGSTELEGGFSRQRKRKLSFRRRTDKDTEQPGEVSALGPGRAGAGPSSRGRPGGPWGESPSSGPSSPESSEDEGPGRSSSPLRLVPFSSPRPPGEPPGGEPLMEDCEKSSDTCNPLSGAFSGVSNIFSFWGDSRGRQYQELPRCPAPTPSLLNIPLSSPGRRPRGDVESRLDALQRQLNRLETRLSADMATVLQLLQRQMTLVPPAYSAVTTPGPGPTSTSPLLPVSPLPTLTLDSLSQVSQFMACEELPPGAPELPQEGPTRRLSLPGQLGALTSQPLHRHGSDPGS

SMILES | hERG current change (%, negative = inhibition) at 1uM
O=C(CN1CCN(c2ccccc2O)CC1)NC(c1ccccc1)c1ccccc1 | -5.69%
COc1ccc(NC(=O)CNS(=O)(=O)c2ccc3nc(C)sc3c2)c(OC)c1 | 1.77%
Cc1ccccc1CNC(=O)Cn1ccc2cc(S(=O)(=O)N3CCCCCC3)ccc21 | 16.6%
N#Cc1ccc(-c2c(-c3ccccc3)ncc3cc(F)ccc23)cc1 | 13.3%
N#Cc1cccc2cccc(S(=O)(=O)N3CCOCC3)c12 | 17%
O=C(c1ccc(S(=O)(=O)N2CCCCC2)cc1)N1CCN(CCN2C(=O)c3cccc4cccc(c34)C2=O)CC1 | 12.3%
O=C(O)CSC(NC(=O)c1cccnc1)(C(F)(F)F)C(F)(F)F | 4.18%
S=C(Nc1ccc(Br)cc1)Nc1ccc2c(c1)OCCO2 | 9.23%
CC(C)Cc1nc2n[nH]c(N)c2c2c1CCCC2 | 9.01%
CCCc1cc(O)c2c(C)cc(=O)oc2c1 | 9.99%
O=C(NCCCn1cccn1)c1cc(COc2ccc(F)cc2Cl)on1 | -6.71%
CC1CCCCN1C(=O)CN1CCC(c2nc3ccc(Cl)cc3[nH]2)CC1 (stereo not drawn) | 1.51%
Cn1c(COc2ccc3ccccc3c2)nnc1SCC(=O)O | 5.3%
Cc1ccc([C@@H]2C3COCC=C3C(C#N)=C(N)C2(C#N)C#N)o1 (stereo partly drawn) | 1.2%
CCCCCC(=O)Nc1cccc(C2=NOC3(C2)C[C@H](C(N)=O)N(C(=O)c2ccccc2C(=O)c2ccccc2)C3)c1 (stereo partly drawn) | 2.78%
CCCc1cc(-c2ccc(O)c(OCC)c2)c(C#N)c(N)n1 | 9.23%
CCc1cccc(C)c1NC(=O)COC(=O)c1cc([N+](=O)[O-])ccc1N1CCOCC1 | 11.2%
CC1(C)CC(C)(c2ccc(O)cc2O)N(c2cccc(Cl)c2)C(=S)N1 (stereo not drawn) | 7.77%
CCc1nc2ccccc2n1CC(=O)N1CCN(Cc2ccccc2)CC1 | -43.8%
O=C(O)C1CSC(c2ccco2)N1 (stereo not drawn) | 11.2%
COc1ccc(OCc2nnnn2-c2ccccc2)cc1 | 2.93%
COc1ccc(CNC(=O)c2csc3c2CCCC3)cc1 | 4.44%
O=C(CSc1nnc(Cn2c(=O)sc3ccccc32)n1-c1ccccc1)N1CCOCC1 | 2.83%

SMILES | hERG current change (%, negative = inhibition) at 1uM
O=C(NN=C1CCN(Cc2ccccc2)CC1)c1cc(Br)ccc1O | -0.126%
COc1ccccc1NC(=O)N(Cc1cccs1)Cc1cc2cc3c(cc2[nH]c1=O)OCO3 | -3.61%
CCOC(=O)N1CCC(NC(=O)CC2C(=O)NCCN2Cc2ccccc2F)CC1 (stereo not drawn) | 8.91%
CCOC(=O)c1cnc(-n2[nH]c(C)cc2=O)[nH]c1=O | 11.7%
CN(C)C(=O)N1CCCC(C(=O)NCc2cccs2)C1 (stereo not drawn) | 3.5%
Cc1ccc(C)c(N/N=C2\CCCNC2=O)c1 | 0.669%
Cc1ccc(N(CC(=O)NC(C)(C)C)C(=O)CS(=O)CC(=O)Nc2ccc(F)cc2)cc1 (stereo not drawn) | 11.6%
Cc1c(C(=O)N2CC(C)OC(C)C2)[nH]c2ccc(Br)cc12 (stereo not drawn) | 12.4%
O=C1CCc2cc(S(=O)(=O)Nc3ccccc3F)cc3c2N1CCC3 | 0.58%
CCCC(C)NS(=O)(=O)c1ccccc1 (stereo not drawn) | -16%
Cc1ccc(-c2ccc(=O)n(Cc3c(F)cccc3Cl)n2)cc1 | 7.8%
COc1ccc2[nH]c3c(c2c1)CCN1C(=O)N([C@@H](C)C(=O)NC2CCCCC2C)C(=O)[C@]31C (stereo partly drawn) | 7.36%
COc1ccc(-c2[nH]ncc2CN2CCC(N3CCSCC3)CC2)c(F)c1 | 12.1%
CCOC(=O)c1sc(=NC(=O)c2ccccc2Br)n(C)c1C | 1.94%
CC1(C)Cc2c(sc3c2C(=O)N(c2ccccc2)C2=NCCCN23)CO1 | 8.24%
O=C(Nc1ccc2oc(-c3cccnc3)nc2c1)c1cc2ccccc2o1 | 9.02%
CN(C)/C=C1\C(=O)NN=C1C(F)(F)F | 2.88%
Cc1cccc(NC(=O)C(C)SCc2nc3sc4c(c3c(=O)[nH]2)CCCC4)n1 (stereo not drawn) | 3.61%
COc1ccc(OCc2nnc(SCC(=O)Nc3ccccc3C#N)o2)cc1 | 3.87%
Cc1ccc(S(=O)(=O)n2nccc2-c2c(-c3ccc(Cl)cc3)noc2C)cc1 | 10.5%
CCN(CC)c1ccc(S(=O)(=O)N2CCOCC2)cc1NC(=O)CN1C(=O)NC2(CCCC2)C1=O | -7.8%
Cc1cccc(OCCCCCn2ccnc2)c1 | -3.37%
